# Where “and” joins values, the source holds several entries; their conditions need not be identical. Equal entries are not always repeated. Out of some 410,000 compounds screened, about 5,000 (1.2%) were called active. Inconclusive results, whose numbers are uncertain, are shown with a selection of clear calls. Calls come from the whole dose curve; as a rule, active = well fitted inhibition curve with a large enough effect; inconclusive = small, poorly fitted or top-dose-only effect; inactive = no such curve, though single readings can be large or run the other way. A potency beside an inconclusive call is a rough fit, not a confirmed value.
# Assay: qHTS for Inhibitors of TGF-b; note: nearly all actives have a fitted effect of over 65% in size
# Settings: HepG2 CAGA-GFP TGF-b/SMAD3 reporter, GFP fluorescence, 18 h, TGF-beta stimulated, 500 pg/mL final; series mostly up to 46.1 µM
# Outline: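 HEPG2 CAGA-GFP, 1000 cells/well; 2 h settle, 37 C; cpd via pin tool; TGF-b 500 pg/mL final; 18 h, 37 C; GFP imaging ex488/em500-530; %Activity normalised to -TGF-b and +DMSO controls; CRC fit, curve class.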
# Potency is the fitted concentration of half-maximal effect; tags give direction and shape of the fitted curve.
row,Compound,Potency
1,CC(C)C(C)NC(=O)COc1ccc(Sc2ccc(OCC(=O)NC(C)C(C)C)cc2)cc1 (configuration not stated),"inconclusive: 6.31 µM [inhibitor, single point]"
2,Cc1ccc(N2CC(C(=O)Nc3nnc(SCc4ccccn4)s3)CC2=O)cc1 (configuration not stated),"inconclusive: 3.16 µM [inhibitor, single point]"
3,Cc1ccc(-n2nc3c([n+]2[O-])CCc2nonc2-3)cc1,"inconclusive: 2.82 µM [inhibitor, single point]"
4,Cc1ccc(S(=O)(=O)N2CCOCC2)cc1NC(=O)COC(=O)/C=C/c1ccco1,inactive
5,O=C(c1ccc(O)c(Br)c1)c1cc(Br)ccc1O,"inconclusive: 22.4 µM [inhibitor, single point]"
6,Cc1ccc(CCNC(=O)c2c[nH]c3ccc(S(=O)(=O)Nc4ccc(C)cc4C)cc3c2=O)cc1,"inconclusive: 35.5 µM [inhibitor, single point]"
7,Cn1nccc1C(=O)N1CCN(c2ncccn2)CC1,"inconclusive: 5.62 µM [inhibitor, single point]"
8,CCc1ccccc1OCC(=O)Nc1cccc(S(=O)(=O)NCc2ccco2)c1,"inconclusive: 35.5 µM [inhibitor, single point]"
9,O=S(=O)(c1ccccc1)N1CCN(Cc2cc3c(cc2Br)OCCO3)CC1,"inconclusive: 35.5 µM [inhibitor, single point]"
10,CCCCCCCCCCCCCCC(O)C[N+](C)(CCO)CCO (configuration not stated),"inconclusive: 25.1 µM [inhibitor, single point]"
11,CC(O)(c1cccc(F)c1)c1nc(-c2cccc(C(F)(F)F)c2)cs1 (configuration not stated),"inconclusive: 12.6 µM [inhibitor, single point]"
12,CC(Oc1ccc(Br)cc1)C(=O)N(Cc1ccccc1)c1c(N)n(Cc2ccccc2)c(=O)[nH]c1=O (configuration not stated),inactive
13,COc1ccc(COC(=O)CCS(=O)(=O)c2ccc(C)cc2)cc1,inactive
14,Cc1nc(-c2ccccc2)c(Cc2ccccc2O)c(=O)[nH]1,"inconclusive: 12.6 µM [inhibitor, single point]"
15,CC(=O)c1cccc(Nc2nc(-c3cccc(C)c3)nc3ccccc23)c1,"inconclusive: 35.5 µM [inhibitor, single point]"
16,OCCNCc1cc(Br)ccc1OCc1ccc(F)cc1,inactive
17,CCOc1ccc(NC(=O)CSC2=C(C#N)C(c3ccc4c(c3)OCO4)CC(=O)N2)cc1 (configuration not stated),inactive
18,COc1cc(NC(=O)c2cc3c(s2)-c2ccccc2OC3)cc(OC)c1OC,"inconclusive: 20 µM [inhibitor, single point]"
19,COc1ccccc1OCC(=O)N1CCN(S(=O)(=O)c2ccc(Cl)cc2)CC1,"inconclusive: 0.631 µM [inhibitor, full curve, poor fit]"
20,Cc1ccccc1NC(=O)COC(=O)COc1ccc2ccc(=O)oc2c1,inactive
21,CCOc1ccc(NC(=O)N[C@@H](Cc2ccccc2)C(=O)O)cc1,inactive
22,COc1cc(OC)cc(-c2sc3ccc(OC)cc3c2-c2ccc3cc[nH]c3c2)c1,"inconclusive: 15.8 µM [inhibitor, single point]"
23,S=C(Nc1ccc(Cl)c(Cl)c1)NC1CCN(Cc2ccccc2)CC1,"inconclusive: 35.5 µM [inhibitor, single point]"

row,Compound,Potency
1,CC(C)(C)OC(=O)NCCCC[C@H](NC(=O)c1nc[nH]c1C(=O)N[C@@H](CCCCNC(=O)OC(C)(C)C)C(=O)OC(C)(C)C)C(=O)OC(C)(C)C,"inconclusive: 22.4 µM [inhibitor, single point]"
2,O=c1c2ccccc2oc2ccc(-c3ccoc3)cc12,"inconclusive: 22.4 µM [inhibitor, partial curve, poor fit]"
3,Cc1ccccc1N1CCN(Cc2c[nH]c3ccccc23)CC1,"inconclusive: 15.8 µM [inhibitor, single point]"
4,O=C1CCCN1c1ccc(S(=O)(=O)Oc2ccc(Cl)cc2)cc1[N+](=O)[O-],"inconclusive: 35.5 µM [inhibitor, single point]"
5,CCCC(=O)N1CCC1(C)C(=O)NS(=O)(=O)c1cc2c(cc1C)CCCS2(=O)=O (configuration not stated),inactive
6,Cc1ccc(NC(=O)c2cc([N+](=O)[O-])ccc2NCc2cccnc2)cc1,"inconclusive: 0.794 µM [inhibitor, full curve, poor fit]"
7,O=[N+]([O-])c1ccc(Nc2nc(NCCN3CCOCC3)nc(Nc3ccc(Cl)cc3)n2)cc1,"inconclusive: 35.5 µM [inhibitor, single point]"
8,NC(N)=N/N=C/c1ccc(Cl)cc1Cl,"inconclusive: 35.5 µM [inhibitor, single point]"
9,CCN1CCN(c2ccc(NC(=O)c3ccc4c(c3)[nH]c(=O)n4Cc3ccc(OC)cc3)cc2)CC1,"inconclusive: 35.5 µM [inhibitor, single point]"
10,CC1(C)CC(=O)C(C=Nc2ccncc2)=C(O)C1,"inconclusive: 0.562 µM [inhibitor, partial curve, poor fit]"
11,CCC(C(=O)Nc1ccc(S(=O)(=O)N2CCN(C)CC2)cc1)c1ccccc1 (configuration not stated),"inconclusive: 35.5 µM [inhibitor, single point]"
12,CC(=O)c1ccc(Nc2nc3c(S(=O)(=O)c4ccccc4)nnn3c3ccc(Cl)cc23)cc1,inactive
13,NC(=O)CC(NC(=O)c1ccc(Br)cc1)c1ccc(N2CCCCCC2)c([N+](=O)[O-])c1 (configuration not stated),"inconclusive: 7.08 µM [inhibitor, full curve]"
14,COCCn1c(SCC(=O)NCc2cccs2)nnc1-c1ccc(OC)cc1,"inconclusive: 2.51 µM [inhibitor, partial curve, poor fit]"
15,COc1cccc(NC(=O)c2sc3nc(C)c(C(=O)Nc4ccc(Cl)cc4)c(-c4ccc(Br)cc4)c3c2N)c1,inactive
16,COc1cc(/C=N/Nc2nc(C)cc(C)n2)ccc1O,inactive
17,C/C(CC(=O)Nc1cc(C)ccn1)=N\NC(=O)c1cccc(C)c1O,"inconclusive: 35.5 µM [inhibitor, single point]"
18,COc1ccc(NC(=O)CSc2nc3[nH]ncc3c(=O)[nH]2)cc1OC,inactive
19,CCC1Oc2ccc(C)cc2N(CC(=O)NCCCN2CCN(Cc3ccccc3)CC2)C1=O (configuration not stated),"inconclusive: 35.5 µM [inhibitor, single point]"
20,COc1ccc(CCNC(=O)c2ccc(N(C)S(=O)(=O)c3ccccc3)cc2)cc1,inactive
21,O=C(CCc1nc(-c2ccccc2Cl)no1)NC1CCCCC1,inactive
22,Cn1nc(-c2ccccc2)c(CSc2ccccc2)c1Cl,inactive
23,Cc1ccc(C(=O)N/C(=C\c2ccc(-c3ccccc3[N+](=O)[O-])o2)C(=O)NCCN(C)C)cc1,"inconclusive: 11.2 µM [inhibitor, partial curve]"

row,Compound,Potency
1,CCC(=O)N1CCc2cc(S(=O)(=O)CCC(=O)Nc3ccc(OC)cc3)ccc21,inactive
2,CCc1ccc(NC(=O)C(NS(=O)(=O)c2cccc3nsnc23)c2ccccc2)cc1 (configuration not stated),"inconclusive: 20 µM [inhibitor, partial curve] and inconclusive: 15.8 µM [inhibitor, single point]"
3,COc1ccc(C2CC(C(F)(F)F)n3nc(C(=O)NCc4cn(C)nc4C)c(Cl)c3N2)cc1 (configuration not stated),"inconclusive: 35.5 µM [inhibitor, single point]"
4,CCC(CO)Oc1cc(NCc2cccc(OC)c2)c2ncn(C(C)C)c2c1 (configuration not stated),inactive
5,O=C(/C=C/c1cn(-c2ccccc2)nc1-c1cccnc1)c1ccco1,"inconclusive: 14.1 µM [inhibitor, single point]"
6,CCc1nc(N2CCN(C(C)=O)CC2)c2c3c(sc2n1)CC(C(C)(C)C)CC3 (configuration not stated),inactive
7,Cc1ccc(NC(=O)c2cc3ccccc3oc2=O)cc1S(=O)(=O)N(C)C,inactive
8,O=C(COC(=O)C12CC3CC(CC(C3)C1)C2)Nc1nc2c(F)c(F)c(F)cc2s1,"inconclusive: 35.5 µM [inhibitor, single point]"
9,Nc1cc(=O)nc(SCC(=O)Nc2ccc(F)cc2)n1-c1cccc(Cl)c1,inactive
10,COc1ccc(CCN2C(=O)N(c3ccc(C)cc3)C(=O)C2CC(=O)Nc2ccc(F)cc2)cc1 (configuration not stated),"inconclusive: 14.1 µM [inhibitor, single point]"
11,CN1CCN(NC(=O)c2cc(S(=O)(=O)Nc3ccc(Cl)cc3)ccc2Cl)CC1,inactive
12,O=C(N/N=C\C=C\c1ccco1)c1cncc(Br)c1,"inconclusive: 35.5 µM [inhibitor, single point]"
13,O=C(CS(=O)c1ccc(C(F)(F)F)cc1[N+](=O)[O-])Oc1ccccc1 (configuration not stated),"inconclusive: 15.8 µM [inhibitor, partial curve, poor fit]"
14,CC(CNC(=O)c1cc(-c2ccccc2)n[nH]1)c1ccccc1 (configuration not stated),inactive
15,CC1(CC(=O)NNC(=O)Nc2ccccc2)OCCCO1,inactive
16,C[C@H](c1ccccc1)n1nnc(COCc2ccccc2)c1C#CCOCc1ccccc1,"inconclusive: 25.1 µM [inhibitor, single point]"
17,CC(C)(C)c1ccccc1NC(=O)Nc1nc(C(N)c2ccccc2Cl)cs1 (configuration not stated),"inconclusive: 31.6 µM [inhibitor, single point]"
18,CCc1cc2c(NC(Cc3ccccc3)C(=O)O)nc(C)nc2s1 (configuration not stated),inactive
19,CCn1c(SCC(=O)N2c3ccccc3Sc3ccccc32)nnc1-c1ccco1,"inconclusive: 22.4 µM [inhibitor, single point]"
20,CCS(=O)(=O)N1CC(=O)N(c2cc(C)ccc2C)C(C)(C(=O)NC2CCCCC2)C1 (configuration not stated),inactive
21,COc1ccc(-n2nnc(-c3nsc(NC(=O)c4cccs4)n3)c2C)cc1OC,"inconclusive: 5.62 µM [inhibitor, full curve, poor fit]"
